System: Vcap cells (androgen receptor (+) prostate cancer cells)
Experiment: CTG cell proliferation assay (CellTiter-Glo), compounds alone or in combination

SMILES | Survival rate of Vcap cells (1 μM tested compound in combination with 1 μM ODM-201) [%] | Survival rate of Vcap cells (1 μM tested compound in combination with 1 μM Galeterone) [%] | Survival rate of Vcap cells (1 μM tested compound in combination with 1 μM prednisone) [%] | Survival rate of Vcap cells (10 μM tested compound in combination with 1 μM Galeterone) [%] | Survival rate of Vcap cells (10 μM tested compound in combination with 1 μM prednisone) [%]
CC1(C)C(=O)N(c2ccc(C#N)c(C(F)(F)F)c2)C(=S)N1c1ccc(OC[C@@H](O)CO)cc1 [AR3-3] | 74.0 |  |  |  | 
CC1(C)C(=O)N(c2ccc(C#N)c(C(F)(F)F)c2F)C(=S)N1c1ccc(CCCc2ncco2)nc1 [AR2-5] |  | 81.6 | 89.0 | 71.1 | 71.8
